Data as given in the domain aggregation screens of Martell et al. (2025).

assay: soluble fraction after stress (log2 fold change); higher = more stays soluble; pooled small domains, quantitative proteomics; conditions: stress: pH 4
In short: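 Small protein domains from pooled custom libraries were exposed to pH 4, then quantified with high-throughput quantitative proteomics. The fold change in how much of each domain remains soluble is read as aggregation propensity. It is given as log2, with higher values meaning more stayed soluble.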

In order of rising “soluble fraction (log2)” value:
1. HMVDDEELLDLVEMEVRELLDDYEFPGDDTPIIRGSALMALEDPAGPWGDKIVELFEAVDSYIP  -1.48
2. HMDEEMLELVEMEMRELLSFYDFDGDNTPIIRGSALGALNGVPQWEDKVMELMDAVDTWIPLP  -1.46
3. HMKVDQVDDAELLDLVEMEIRELLSSYDFPGDDVPIVKGSALAAVEDRDEAIGKNSIIELMSKVDEYIPAP  -1.38
4. HMAKGTVKWFNETKGYGFIAPEGGKKDVFVHITALERAGLRGLKDGQAVNFDIEAGRDGRESAINITL  -0.88
5. HMAMINTVQPILVEGLSKKNNDTLFGRTENNRVVNFEGSRSLIGNFVNIKITEALSNSLRGIIQS  -0.315
6. HMQPVNIEPRSPLHAQVLLDRANFSPGQIDGEVGSNQRRAVSGLQAARGLKVTGELDEETWQALQAD  -0.285
7. HMSASHYDVLNLKKTASETEIKKAYRKLAVEYHPDKVMNLGEEYQKAAKEKFQKVQEAYEQIKLERGI  -0.0234
8. HMGMVGTNHRILVDGVSRKNAGHLSGRTENNRVVNFAAGEASIGDFRDVRITEALPNSLRAEVLG  0.0742
9. HMYDTKLTTQDAADYLGISRPTLEKLLEQGDIPFTRVGRHRRVMLSDLQHYAVTQHDKNMQIFDAIAA  0.0865
